± gives the standard deviation of the averaged measurements. Some of the results follow.
Each sequence was assayed on PfAP2-I AP2 domain 3 (GST-tagged) (assay: gcPBM binding intensity (ln(normalized median fluorescence intensity)); higher = stronger DNA binding).
Summary of the method: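 For binding intensity, the highest Masliner-normalised natural-log median intensity across replicate spots of either probe orientation was taken. Protein bound to the array was stained with Alexa488 anti-GST antibody and scanned at 488 nm. The protein, GST-tagged P. falciparum DNA-binding domains from E. coli at about 25 μg on average, had been applied for 1 h to an Agilent 4 × 180k array of primer-extended double-stranded 36-bp intergenic genomic probes and negative controls.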

Point of comparison: “ATTTATTATATATACACACATACATATATATATATA [CACACA_site2159]”, “gcPBM binding intensity (ln)” value 9.23 ± 0.38. Against it:
- TTTTTTTATTTTATTTTATTATCTTATGTATCACAA [CACACA_negctrl_site1755] — lower, 7.75 ± 0.57
- TTTGTTCATATTATTGTGCACTTAAACGTAACAAAA [GTGCAC_site9505] — higher, 11.3 ± 0.39
- TTTATATTCTTAAGTGTGCACTATATATATATATAT [GTGCAC_site9719] — higher, 11.2 ± 0.23
- ACCCTATATGTAACTACACACCGCATATTGTTTACT [CACACA_site3071] — within error, 8.34 ± 0.65
- AATGTAGCATTTTATCGTACACTTAATACAAAAAAG [XGTACX_site6214] — lower, 7.89 ± 0.33
- ATGTATGTATATACTTGTACATATTCATATTAGTAT [XGTACX_site1118] — lower, 7.66 ± 0.39
- TATCATGTCTGTATTTCACACACGGATAATCATTTA [CACACA_site920] — lower, 7.57 ± 0.65
- AAAAATAAAATATATACATGCATATACATATTATAT [TGCATGCA_site668] — lower, 7.87 ± 0.45
- TGTTATATTTAATATAGTACATATTATTTTATATAT [XGTACX_site70] — lower, 7.58 ± 0.29
- TATTCTATATTTCTATTTAGAAAACATCCCAGTGTG [GTGCAC_negctrl_site184] — lower, 7.54 ± 0.49
- ATGTATATAATAAGAACACACATATATTTAATTTAA [CACACA_site2941] — lower, 7.42 ± 0.48
- ATACATATATACATACGTACTTATATACATATGTGC [XGTACX_site5268] — lower, 7.82 ± 0.52
- AGAAAATTAAAAAGAACACACAAATATATATAGAAT [CACACA_site3592] — lower, 7.85 ± 0.79
- ATTTATATGCACCATTGTACGTTTTATAAAGTTTGG [XGTACX_site3755] — higher, 11.6 ± 0.83
- TTATTATGCTGAGTACGTACTTATATAAGAATAGCA [XGTACX_site2955] — lower, 8.09 ± 0.48
- TAAGTTCACAAAAAAAAAAAAAAATAAAGAAATAAA [CACACA_negctrl_site825] — lower, 7.37 ± 0.49
- AAATTATTTCCGTGTACACATAAATATATATTTTAT [CACACA_site5121] — within error, 8.91 ± 0.35
- TAAAATATTACGTGTACACATAAATAAAAATAAAAA [CACACA_site5066] — lower, 8.4 ± 0.2
- TTTTATATTCCACAAAAAATTATATAATAATAGAAC [CACACA_negctrl_site1741] — lower, 8.31 ± 0.3
- GTAATATATACAAAATGTACAAAACAATAACATGAT [XGTACX_site8575] — lower, 7.96 ± 0.75
- ATCCAAACAAATAAAACATGCATAATATATATATAT [TGCATGCA_site766] — within error, 9.19 ± 0.099
- CTCAAATAATTTTTTACACACATTATTTGAAATAAG [CACACA_site1290] — lower, 7.76 ± 0.47
- ATGCTTTTATAAATAATTAAAAAAAAAAAAAAAAAA [TGCATGCA_negctrl_site533] — lower, 7.79 ± 0.51
- TTTTTTTTTAATATTTGTACACAACATGAAACATTT [XGTACX_site473] — lower, 8.16 ± 0.53
- AATAGAAAAAAATAAGTGCATTTTGGTATTCATCAT [GTGCAC_site9614] — within error, 9.26 ± 0.23
- GATATTGAGAAAGGGTGTACAAGATATTATACTATA [XGTACX_site3598] — lower, 7.92 ± 0.4
- TTTTATGTAATTATTTGTACATATGCCTCTTAAACT [XGTACX_site748] — lower, 7.68 ± 0.83
- ACATAAATAATAAAAACACACATATGTACATATATA [CACACA_site1913] — lower, 7.84 ± 0.23
- AAATTTATATTCATTTGTACGTAATTTAAATTATAC [XGTACX_site5870] — lower, 7.9 ± 0.3
- ACAAAATATACAAAATGTACAAAATTTACAAAATGT [XGTACX_site3544] — lower, 7.59 ± 0.64
- AAAAAAAAAAAGCACACACACATATGTGTATTTATA [CACACA_site6578] — lower, 8.04 ± 0.22
- TACTAGCAAATACATACACACACACCCATATACATA [CACACA_site9163] — lower, 7.99 ± 0.32
- AAAAAAAAAAAAAACACACACACACCCATACAAAAT [CACACA_site1446] — within error, 8.53 ± 0.5
- ATGCACTCATTGTGCACACGCATATTACGAAAAGAA [CACACA_site2638] — higher, 10.6 ± 0.18
- AAGATTTGAAAAAATACACACAATAAAAAAATAAAA [CACACA_site3281] — lower, 7.64 ± 0.57
- TATATATATATGTGTATACACACCTGATAAAGGTAT [CACACA_site2653] — within error, 9.34 ± 0.13
- AATAAATAAAAAACATGTACAAATATAATATAGCAT [XGTACX_site6429] — within error, 8.12 ± 0.94
- TATTTAACACCTTATACACACTTTCTTCCTTTTTTA [CACACA_site4590] — lower, 8.19 ± 0.57
- TATACATATGAAAATACACACATACATACCTATATA [CACACA_site6888] — lower, 7.73 ± 0.33
- TAATTGTACGCCAATACACACAGAATTATAATGTAG [CACACA_site6201] — lower, 8.14 ± 0.57
- TATAATATAATTAAAAGTACTTAAAAAAGAATGAAA [XGTACX_site1157] — lower, 8.09 ± 0.46
- TGTTTATATAATATTCTACACACCAACAACAAACAT [CACACA_site8087] — lower, 8.465 ± 0.078
- TATTTTTATAAAAATCGTACAAGTGATCCAATTTTT [XGTACX_site4402] — lower, 7.75 ± 0.29
- TTTTTAAAACATATCACACATATATATATATATATA [CACACA_site5991] — within error, 9.39 ± 0.62
- CCGTATTCAAAAAGGAGTACACAATTATATGTTATA [XGTACX_site641] — lower, 8.05 ± 0.28
- ATATGAGAGAATAAAACACACAAAAAAAAAAAAAAA [CACACA_site2865] — lower, 7.97 ± 0.79
- TAATAATCAAGTTAACGTACAAAATCATCTATAGAA [XGTACX_site5921] — lower, 8.03 ± 0.13
- GTAGCCTTTCTTTATAAAGGCAAACAAACAAAAAAT [CACACA_negctrl_site1491] — lower, 8.01 ± 0.59
- TGTATGTATTTTCAATGTACATAAAAAAAAAAAAAA [XGTACX_site4397] — lower, 8.07 ± 0.51
- TATTTTTTTTGTTAGGTGCATTTACATTTATTTTTA — higher, 10.8 ± 0.61
- AAAAATTAAAAGAAAATACACACCTGTGGGTGCTTA [CACACA_site1988] — lower, 7.34 ± 0.73
- TTATATAGGCAGATGGTGCATCTATTTATAAGCAAC — higher, 9.78 ± 0.12
- AAAAAAAAAAGTTCTACACACACAAAAAAATATTTT [CACACA_site8725] — lower, 7.62 ± 0.67
- TGCATACTAGCCAATTGTACATAATTTTATTTTAAA [XGTACX_site513] — lower, 7.8 ± 0.31
- ATTATGATTTTATAGAACTGAACATTTACATTAAAT [GTGCAC_negctrl_site192] — lower, 7.58 ± 0.45
- AAAATAAATCTGAATGGGGTATAATATATCTTTGTT [CACACA_negctrl_site744] — lower, 7.61 ± 0.59
- AAAAGGAACAGACACACACACATATATATATATATA [CACACA_site3587] — within error, 9.54 ± 0.57
- ATAACAAAATAAAACACACACACAAATGTACTTATA [CACACA_site8768] — lower, 7.83 ± 0.31
- TGCTTTTATTTCTTCACACATATGTAAAAAAAAGAA [CACACA_site5906] — lower, 8.21 ± 0.23
- AAAAAATTCTGGTACTGTACACATTTTTTTAAATTT [XGTACX_site6904] — lower, 7.76 ± 0.38
- ATACGAAAAAAAAAAAGTACACAAAAATATCTACAT [XGTACX_site2051] — lower, 7.96 ± 0.19
- ATATAAATAATGTTGACACACACAATAATCTTATTA [CACACA_site9197] — lower, 7.66 ± 0.67
- AAAATATGGATTCATGATATTAAATTTAATTTAATG [XGTACX_negctrl_site214] — lower, 7.41 ± 0.55
- GTTATACTCATATATACACACATATGTAAATATATA [CACACA_site5764] — lower, 7.82 ± 0.46
- ATTATATTAGGTAATCAGTTAAATGTTTCCTTTTTA [CACACA_negctrl_site1229] — lower, 7.44 ± 0.62
- TTTATATAATTTTGTGGTACTTATGTGTGTATATTA [XGTACX_site706] — lower, 7.99 ± 0.45
- AAAAAAAAAAAAAGTACACACTTATAAAATATTATG [CACACA_site4639] — lower, 8.03 ± 0.071
- TAAATTATCTTTTTATGTACTTATTTTTATTATTTT [XGTACX_site3158] — lower, 7.75 ± 0.7
- CGCGCACCCAGACACACACACACACCGATATATATA [CACACA_site8687] — within error, 8.46 ± 0.83
- TATTTTCAACATATTTGTACATATTTTATATTTTAA [XGTACX_site101] — lower, 7.96 ± 0.42
- AAGAAAAAAAAAATTACACACTGCGGACATACACAA [CACACA_site4838] — lower, 7.97 ± 0.67
- TCAATTTTACTTGTTTGTACATAAAATAATAAGGTT [XGTACX_site3732] — lower, 7.74 ± 0.45
- AACATACACATATACACACACACATATATACCTATA [CACACA_site6643] — lower, 8.14 ± 0.59
- ATATTTTGTTTTTGTTCTTTTTTTTTCTTTTTTTTT [CACACA_negctrl_site1342] — lower, 7.58 ± 0.76
- TATATTAAATGAAACAAACACACATAGCCTTTAAAT [CACACA_site1559] — lower, 7.69 ± 0.57
- ATATCTACTATACAACTGAGTGTAGAAAAATTAAAC [CACACA_negctrl_site1211] — lower, 8.07 ± 0.63
- ACTTTGCTCTACAATGCATGCTCATTTAACAAGGCA [TGCATGCA_site676] — within error, 8.27 ± 0.81
- ATATTTATAAATTGCACACAAATAATAACATTCTAT [CACACA_site2357] — lower, 8.69 ± 0.014
- AATTGGGAAGGACATGCATGAGAAATTAATATTGCA [TGCATGCA_site424] — lower, 7.82 ± 0.67
- TATTATTATTATGGTAGTACATGTAGGTTATTAAAA [XGTACX_site5742] — lower, 8.28 ± 0.25
- TAATTCGCATTTTATACACACATTCGAACCTTTTTT [CACACA_site7549] — lower, 7.97 ± 0.61
- AAATTAATACATTATTGTACTTTTCATGTGCAGAAA [XGTACX_site8284] — lower, 8.31 ± 0.18
- CGGATGAATATATATGCACACATCTTTTGTAAAAAT [CACACA_site3190] — within error, 9.16 ± 0.11
- CATATTACATTAAATTGTACATATATATATATATAT [XGTACX_site3295] — within error, 9.43 ± 0.55
- TGTATAAATATATGCACACATATATATATTTATATA [CACACA_site3473] — within error, 9.09 ± 0.52
- TCAATAAATGAATATGCATGCACGCTCTTTAGAGAT [TGCATGCA_site553] — higher, 10.8 ± 0.5
- GAGAAAAAAAAAAAAAAACACACGGTACATTCAAAG [CACACA_site1767] — lower, 7.67 ± 0.75

Reference: the supplement of paper PMC11417369
